The values that follow come from ChEMBL document CHEMBL4888484, “Replenishing the malaria drug discovery pipeline: Screening and hit evaluation of the MMV Hit Generation Library 1 (HGL1) against asexual blood stage Plasmodium falciparum ,using a nano luciferase reporter read-out” (2022).

For orientation: % Inhibition means the relative decrease from the control value, in per cent.

The campaign covered roughly 150,000 compounds. About 540 (0.36%) showed an effect of 50% or more. Some of the results follow.

This experiment deals with Plasmodium falciparum. Kind of experiment: Primary screen in NF54 nanoGlo assay, in single point, at 2uM, 72h; a lower Z score goes with more inhibition. Type of experiment: functional, Erythrocyte. To be noted: timepoint 72 hour.
As for `O=C1NC(=O)[C@H](CC(=O)N2CCc3sccc3C2)N1`, the “% Inhibition” value turned out to be 0% and the Z score was 0.
`O=C(NCc1ccc(-c2nc(-c3ccc(F)cc3)no2)s1)c1ccccc1F`: the “% Inhibition” value was -3% and the Z score is 0.57.
Turning to `Cc1nc(CN2CCN(CCS(C)(=O)=O)CC2)nc2ccccc12`, the “% Inhibition” value amounted to 1% and the Z score is on record as -0.06.
The like results for `Cc1nnc([C@H](C)NCc2ccc(F)c(C)c2)[nH]1` were, in that order, -10% and 1.99.
For `COc1ncc(Cl)c(N2CCn3c(nnc3C(F)(F)F)C2)n1`, the “% Inhibition” value is -4% and the Z score is given as 0.58.
For `C[C@H](NC(=O)CCc1ccc(F)cc1F)c1ccc2c(c1)CC(=O)N2`, the “% Inhibition” value is given as -7% and the Z score is 1.22.
On to `O=C1CCc2cc(NC(=O)N3CCC[C@H](c4cc(F)ccc4F)C3)ccc2N1`, for which the “% Inhibition” value is recorded as -6% and the Z score amounted to 0.75.
The like results for `CCn1nccc1C=Cc1nc(=O)c(OC)c[nH]1` were, in that order, 2% and -0.46.
The corresponding values for `CCCCN1C(=O)C2C(CCC(N)=O)NC3(C(=O)Nc4ccc(F)cc43)C2C1=O` (stereo not given) are -4% and 0.67.
Take `Cc1ccc(CNC(=O)Nc2ccc(N3CCNC(=O)C3)nc2)s1`: the “% Inhibition” value was -9% and the Z score is recorded as 1.73.
The like results for `Clc1cnc(N2CCN(C3CCC3)CC2)nc1` were, in that order, -4% and 0.81.
The corresponding values for `O=C(C1CCCCN1C(=O)C1CC2CCC1O2)N1CCCC1` (stereo not given) are -6% and 1.08.
Consider `C[C@H](NC(=O)NC1CCCCC1)C(=O)N(C)C`, for which the “% Inhibition” value is -5% and the Z score turned out to be 0.95.
The corresponding values for `CCc1nncn1CCNC(=O)N1CCC[C@H](C)CC1` are -11% and 1.32.
The like results for `O=C(O)Cc1cccc(NC(=O)[C@@H]2C[C@]23CCOc2ccccc23)c1` were, in that order, -6% and 0.64.
With `Cc1c(C(=O)NCc2ccc(Cl)cc2)cnn1-c1cc(-c2nc(C3CC3)no2)ccn1`, the “% Inhibition” value is reported as -4% and the Z score was determined as 0.65.
The like results for `CC(C)(C)c1cc(Cn2cnc(-c3ccccc3)c2[C@H]2CCOC2)n[nH]1` were, in that order, 5% and -0.64.
The like results for `CCS(=O)(=O)NCCNc1ccc(-n2cccn2)nn1` were, in that order, -6% and 0.68.
As to `CCn1ncnc1CNC(=O)c1ccc(C(N)=O)s1`, the “% Inhibition” value is reported as -6% and the Z score is 0.78.
For `O=C(NCc1ccc(F)cc1)C1Cc2cc(C(F)(F)F)ccc2N2CCN(c3ccccc3)CC12` (stereo not given), the “% Inhibition” value was 4% and the Z score is listed as -0.57.
Turning to `Cc1cccc2nnc(-c3cnc(-c4ccccc4)nc3)n12`, the “% Inhibition” value was -5% and the Z score is listed as 0.71.
`O=C(NCCc1noc([C@@H]2CCCO2)n1)Nc1cccc(-n2cncn2)c1`: the “% Inhibition” value is given as -23% and the Z score is listed as 2.96.
For the compound `Cc1cc(N2CC(C)OC(C)C2)ncn1` (stereo not given), the “% Inhibition” value was -16% and the Z score is listed as 2.38.
The like results for `Cc1ccc(C(=O)Nc2cccc(NC(=O)c3ccccc3)c2)c2ccccc12` were, in that order, -5% and 0.61.
The corresponding values for `CC(C)[C@H]1C(=O)N(C)CCN1C(=O)c1cccc(O)n1` are -9% and 1.86.
On to `C[C@@H](NC(=O)C1CN2CCCN1CC2)c1ccccc1` (stereo not given in full), for which the “% Inhibition” value is recorded as -5% and the Z score was determined as 0.8.
In the case of `O=C(Nc1cc(C(=O)N2CC3CCCC2C3)c2c(c1)ncn2C1CCCC1)c1ccccc1` (stereo not given), the “% Inhibition” value is recorded as -4% and the Z score turned out to be 0.52.
As for `Cc1nc(CNC(=O)c2ccc(N3N=C(Cc4ccccc4)CC3=O)cc2)no1`, the “% Inhibition” value amounted to 9% and the Z score is given as -1.15.
In the case of `CC(Oc1cccc(OCC2CCC3CC3C2)c1)C(N)=O` (stereo not given), the “% Inhibition” value was 0% and the Z score is on record as -0.01.
Regarding `O=C(CCOc1ccc(F)c(Cl)c1)NCc1cccs1`, the “% Inhibition” value is -11% and the Z score stood at 1.48.
The corresponding values for `COCCO[C@H]1CN(C2CCN(S(C)(=O)=O)CC2)C12CCCCC2` are -10% and 1.91.
As for `c1coc(-c2nc(COc3ccc4c(c3)OCO4)cs2)c1`, the “% Inhibition” value turned out to be 9% and the Z score is given as -1.27.
On to `CC(=O)Nc1ccc(-c2nc(C)nn2-c2cccc3cccnc23)cn1`, for which the “% Inhibition” value is 1% and the Z score is -0.13.
Consider `COCCCNc1cncc2ncnn12`, for which the “% Inhibition” value is -2% and the Z score was 0.29.
For `O=C(OCc1nnnn1-c1ccccc1)C1(c2ccccc2)CCCC1`, the “% Inhibition” value came out at 1% and the Z score is -0.13.
The like results for `CC(C)[C@@H](CO)NC(=O)c1cc(C(F)F)ncn1` were, in that order, 21% and -2.69.
With `COc1cccc(CN2CCCN(c3ccc(C)cc3NS(=O)(=O)c3cccc(Cl)c3)C2=O)c1`, the “% Inhibition” value is on record as -6% and the Z score is recorded as 0.93.
The like results for `CCOc1ncccc1-c1ccc(N(C)CCO)nn1` were, in that order, -10% and 0.94.
Turning to `O=C1CN(c2ncnc3c2CCC3)CCN1Cc1ccccc1F`, the “% Inhibition” value worked out at 7% and the Z score is listed as -1.17.
The corresponding values for `O=C(Nc1ccc2ccoc2c1)N1CC[C@H](C2CCOCC2)C1` are -16% and 2.24.
Turning to `COc1cccc2c(N3CCC[C@@H](C(=O)NC(C)C)C3)nccc12`, the “% Inhibition” value came out at 2% and the Z score was -0.48.
As to `N#Cc1ccccc1S(=O)(=O)Cl`, the “% Inhibition” value is listed as -12% and the Z score amounted to 1.61.
With `O=C1COc2ccc(S(=O)(=O)N3CCC[C@H]3c3ccccc3)cc2N1`, the “% Inhibition” value was 20% and the Z score is -2.48.
Consider `COc1ccc(-c2nc3noc(C)c3c(N)c2C#N)cc1`, for which the “% Inhibition” value is listed as -36% and the Z score was determined as 4.25.
The corresponding values for `COc1cc2c(cc1OC)[C@H](CNC(=O)c1ccccc1)N(Cc1cccc(F)c1)CC2` are -12% and 1.8.
The like results for `CCN(CC)CC(O)COc1c(Br)cc(C(C)(C)c2cc(Br)c(OCC(O)CN(CC)CC)c(Br)c2)cc1Br` (stereo not given) were, in that order, 99% and -13.36.
The corresponding values for `CC1(C)CCC2c3ccccc3NC3C(C)(C)C=C1C23C` (stereo not given) are -3% and 0.68.
For the compound `COCCNC(=O)CN[C@@H](C)c1nc(C)cs1`, the “% Inhibition” value is -18% and the Z score stood at 1.89.
The like results for `OC1c2ccccc2CC1NCc1ccc(-c2ccn[nH]2)o1` (stereo not given) were, in that order, -19% and 1.91.
Consider `Cc1cc(Oc2ncccn2)ccc1NC(=O)c1c(C)oc(C)c1C`, for which the “% Inhibition” value was -1% and the Z score amounted to 0.19.
The like results for `O=C(CCC(F)(F)F)N1CC[C@@]2(CCCN(CCCc3ccccc3)C2)C1` were, in that order, -6% and 0.76.
The corresponding values for `COc1cc(C)c(CN2CC(N3CCCCC3)C2)cc1C` are -5% and 0.86.
Consider `Clc1ccc(-c2cc3c(N4CCN(C5CCCCC5)CC4)nccn3n2)cc1`, for which the “% Inhibition” value is 5% and the Z score is -0.71.
As for `Cc1ccc(COC2C[C@](OCc3ccc(F)cc3F)(C(=O)NC(C)C)C[C@H]3OC(C)(C)O[C@@H]23)cc1` (stereo not given in full), the “% Inhibition” value is reported as -2% and the Z score is 0.4.
Take `Cc1cc(NC(=O)[C@H](C)N(C)Cc2cnn(C)c2)on1`: the “% Inhibition” value is -7% and the Z score is on record as 0.89.
